Laboratory results taken from the supplement of paper PMC10670038.
Counter-ions that a name gives are not always drawn. ± gives the standard deviation of the averaged measurements. Over roughly 2,000 compounds, “relative cell viability vs DMSO, compound + 0.2 uM CuET” has its median near 1; the lowest 2% begin near 0.25. The list shows a part of the results.

Test system: TE10
Experiment: relative cell viability vs DMSO, compound + 0.2 uM CuET (fraction); TE10 is an esophageal squamous carcinoma line; higher = less cytotoxic
Conditions: 2 µM; co-treatment: CuET (bis(diethyldithiocarbamate)copper) 0.2 uM; 48 h
Experimental: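 TE10 ESCC cells (1,000/well, 384-well plates) were treated with Selleck bioactive library compounds at 2 uM combined with 0.2 uM CuET (copper diethyldithiocarbamate) for 48 h. Viability was read by CellTiter-Glo and expressed relative to DMSO wells. Two technical replicates (A, B).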

| SMILES | relative cell viability |
| --- | --- |
| C=C1C[C@@H]2[C@H](CC[C@]3(C)C(=O)CC[C@@H]23)[C@@]2(C)C=CC(=O)C=C12 [Exemestane] | 1.037 ± 0.0051 |
| C[C@H]1CNCCc2ccc(Cl)cc21 [Lorcaserin HCl] | 1.18 ± 0.13 |
| COc1cc(C)[nH]c(=O)c1CNC(=O)c1c(C)n([C@H](C)C2CCOCC2)c2ccccc12 | 1.18 ± 0.017 |
| CN(C)[C@@H]1C(=O)C(C(N)=O)=C(O)[C@@]2(O)C(=O)C3=C(O)c4c(O)cccc4[C@@](C)(O)[C@H]3[C@H](O)[C@@H]12 [Oxytetracycline Dihydrate] | 1.11 ± 0.014 |
| CN(C)[C@@H]1C(=O)C(C(N)=O)=C(O)[C@@]2(O)C(=O)C3=C(O)c4c(O)cccc4[C@@](C)(O)[C@H]3[C@H](O)[C@@H]12 [Oxytetracycline (Terramycin)] | 1.054 ± 0.0011 |
| CN1C(=O)CCS(=O)(=O)C1c1ccc(Cl)cc1 (stereo not drawn) [Chlormezanone] | 1.08 ± 0.047 |
| O=P1(N(CCCl)CCCl)NCCCO1 (stereo not drawn) [Cyclophosphamide Monohydrate] | 1.07 ± 0.078 |
| c1ccc2c(c1)sc1ccccc12 [Dibenzothiophene] | 1.16 ± 0.19 |
| Cc1ccc(-n2nccn2)c(C(=O)N2CCN(c3nc4cc(Cl)ccc4o3)CC[C@H]2C)c1 [Suvorexant (MK-4305)] | 0.801 ± 0.017 |
| CCCN1CCO[C@@H]2c3cc(O)ccc3OC[C@H]21 | 1.04 ± 0.028 |
| CCCCCCCCCCCCCCCC[n+]1ccccc1 [Cetylpyridinium Chloride] | 0.857 ± 0.057 |
| Cc1sc2c(c1C)C(c1ccc(Cl)cc1)=N[C@@H](CC(=O)OC(C)(C)C)c1nnc(C)n1-2 | 0.586 ± 0.068 |
| CCc1cc2c(s1)-n1c(C)nnc1CN=C2c1ccccc1Cl [Etizolam] | 1.14 ± 0.17 |
| Cc1sc2c(c1C)C(c1ccc(Cl)cc1)=NC(CC(N)=O)c1nnc(C)n1-2 (stereo not drawn) | 0.695 ± 0.058 |
| OC(c1ccccc1)(c1ccccc1)C1CCNCC1 [Azacyclonol] | 1.34 ± 0.36 |
| COc1cc(OC)c(OC)cc1C=O [Asaraldehyde] | 1.08 ± 0.073 |
| CCC1(C)CC(=O)NC(=O)C1 [Bemegride] | 1.09 ± 0.04 |
| C/C(O)=C(\C#N)C(=O)Nc1cc(Br)ccc1Br | 1.17 ± 0.16 |
| CCN(Cc1ccc(Cl)nc1)/C(=C/[N+](=O)[O-])NC [Nitenpyram] | 1.101 ± 0.0088 |
| Cc1ccccc1-n1c(Cn2ncc3c(N)ncnc32)nc2cccc(C)c2c1=O | 1.15 ± 0.18 |
| CCN1CC2(OC(=O)c3ccccc3NC(C)=O)CCC(OC)C34C1C(CC23)C1(O)CC(OC)C2CC4C1(O)C2OC (stereo not drawn) [Lappaconite HBr] | 1.049 ± 0.0027 |
| CN(C)C(=O)Oc1ccc[n+](C)c1 [Pyridostigmine Bromide] | 1.04 ± 0.019 |
| CN1CCN(c2nc3ccccc3nc2Cl)CC1 | 1.15 ± 0.04 |
